Over roughly 110,000 compounds, “z-score” has its median near -0.1; the highest 2% begin near 2. The list shows a part of the results.

For the test, the target named is Metabotropic glutamate receptor 8 (Rattus norvegicus) (UniProt P70579). Description: rat mGluR8 modulators via GIRK flux, primary screen, cell-based, thallium flux, HTS (AID 488969). Particulars: HEK293 rat mGluR8, GIRK (G protein-gated inwardly rectifying potassium channel) thallium flux, FluoZin2; at 10 µM; stronger effect = higher value; submaximal glutamate (EC20) added with thallium.
UniProt P70579, sequence (P70579 whole entry, looked up): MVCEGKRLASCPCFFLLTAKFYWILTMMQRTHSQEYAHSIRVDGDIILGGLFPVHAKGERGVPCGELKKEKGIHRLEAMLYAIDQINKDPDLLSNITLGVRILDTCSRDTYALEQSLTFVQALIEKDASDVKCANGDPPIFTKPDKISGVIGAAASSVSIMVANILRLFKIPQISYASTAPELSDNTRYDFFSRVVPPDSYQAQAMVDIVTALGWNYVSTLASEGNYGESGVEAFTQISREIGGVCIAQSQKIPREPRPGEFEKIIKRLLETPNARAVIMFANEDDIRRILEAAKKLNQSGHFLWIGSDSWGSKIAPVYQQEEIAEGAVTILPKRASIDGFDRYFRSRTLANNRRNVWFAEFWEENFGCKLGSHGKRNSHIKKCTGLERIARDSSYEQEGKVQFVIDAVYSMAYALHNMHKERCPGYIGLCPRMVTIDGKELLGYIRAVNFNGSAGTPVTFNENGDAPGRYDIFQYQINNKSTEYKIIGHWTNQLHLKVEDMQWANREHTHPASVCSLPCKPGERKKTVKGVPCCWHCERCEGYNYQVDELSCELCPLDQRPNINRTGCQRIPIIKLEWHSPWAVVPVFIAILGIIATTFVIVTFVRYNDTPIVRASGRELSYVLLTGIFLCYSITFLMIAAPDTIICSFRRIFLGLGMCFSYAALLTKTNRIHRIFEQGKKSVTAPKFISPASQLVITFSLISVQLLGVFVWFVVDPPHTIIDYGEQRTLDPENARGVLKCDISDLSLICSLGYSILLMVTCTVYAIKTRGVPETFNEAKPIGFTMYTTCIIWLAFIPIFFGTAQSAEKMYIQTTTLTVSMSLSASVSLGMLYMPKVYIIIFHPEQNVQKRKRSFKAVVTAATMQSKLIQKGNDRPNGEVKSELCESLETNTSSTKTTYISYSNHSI
On to `CC(=O)c1ccc(NC(=S)N2CCN(CCN3C(=O)c4cccc5cccc(c45)C3=O)CC2)cc1`, for which the z-score was -0.572.
In turn, `COc1ccc(NC(=O)NCc2ccncc2)cc1` registered a z-score of -0.208.
`CCCCOC(=O)Nc1cccc(Cl)c1C` displayed a z-score of 0.0745.
The value for `O=C(NNC(=O)c1cc(-c2ccccc2)nc2ccccc12)Nc1cccc(Cl)c1` was -0.263.
With `COc1ccc(-c2cc(C(F)(F)F)nc(N3CCOCC3)n2)cc1` the figure was -0.167.
In turn, `COc1cccc(-c2cc3c(=O)n(-c4ccccc4)c(=S)[nH]c3s2)c1` displayed a z-score of 0.0948.
The value for `O=C(c1ccc2c(c1)OCCO2)N1CCCCC1` was -0.102.
In turn, `Cc1ccc(S(=O)(=O)Nc2ccc3oc(=O)sc3c2)c(C)c1` displayed a z-score of -0.162.
In turn, `N#Cc1c(Cl)nc(SCc2ccccc2)nc1-c1ccccc1` gave a z-score of -1.25.
With `O=C(c1cc(-c2ccco2)nn1-c1cccc(Cl)c1)N1CCCCC1` the figure was -0.886; with `COc1ccc(S(=O)(=O)N2CCN(C(=O)c3c(C)nn(-c4ccccc4)c3Cl)CC2)cc1`, 0.514; with `CNC(=O)COc1ncnc2sccc12`, -0.352.
`CCCCCCCCC(=O)Nc1cc(C)ccc1OC` displayed a z-score of 0.909.
`O=C(N/N=C/c1ccc(Cl)cc1)c1cc2c(s1)-c1ccccc1CC2` registered a z-score of 0.0437.
The value for `COC(=O)CC/C(C)=N\Nc1ccc([N+](=O)[O-])cc1[N+](=O)[O-]` was -0.962.
Compound `CCOc1ccc(Nc2oc(-c3ccccc3Cl)nc2C#N)cc1` came in with a z-score of -0.217.
For the compound `N#Cc1c(-c2ccc(F)cc2)cc(C2CC2)nc1SCC(=O)c1cccs1`, the z-score was -0.015.
Compound `COC(=O)C(C)N(C#N)c1nc(NC(C)C)nc(SC)n1` (centres undefined) registered a z-score of -1.22.
With `CCOc1c(Cl)cc(/C=N/NC(N)=S)cc1OC` the figure was 0.0379.
Compound `Cc1c(C(=O)OC2CCC(C)CC2)[nH]c2c1C(=O)CCC2` (centres undefined) showed a z-score of -0.601.
With `CCOC(=O)c1c(-c2ccccc2)csc1NC(=O)C(C)NCc1ccco1` (centres undefined) the figure was -0.0896.
With `COC(=O)c1oc2ccc(Cl)cc2c1N` the figure was 0.041.
`CCOc1ccc(NC(=S)N2CCC(N(C)CC3CCCO3)CC2)cc1` (centres undefined) displayed a z-score of -0.287.
With `CC(C)N(c1ccccc1)c1ncnc(NCCC(=O)O)c1[N+](=O)[O-]` the figure was -0.384; with `COC(=O)C1=NN(c2ccc(C)cc2)C2(S1)SC(C(C)=O)=C(C)N2c1ccccc1` (centres undefined), -0.0607.
For `Clc1ccc(-c2nc3nc4ccccc4nc3n2Cc2ccco2)cc1`, the z-score stood at 0.139.
Take `C[C@H](NC(=O)NC1CCCc2ccccc21)C(=O)O` (some centres undefined): the z-score is -0.0913.
Turning to `COc1ccc(S(=O)(=O)N(CCc2ccccc2)CC(=O)NC(C)C)cc1`, the z-score is -0.387.
The value for `c1ccc2c(c1)N1CCN=C1N2CCN1CCCCC1` was -0.329; that for `COc1ccc(C(=O)/C=C/c2ccc(OC)c(Cn3nnc4ccccc43)c2)cc1` was -0.713.
`Cc1c(C#N)c(N=CN(C)C)c(C(=O)c2ccccc2)n1-c1ccc(Br)cc1`: the z-score is -0.637.
On to `CCOP(=O)(OCC)C(C#N)=C1SCN(c2ccccc2)CS1`, for which the z-score was -0.315.
In the case of `CN1CCN(c2ccc([N+](=O)[O-])cc2C(=O)c2ccc(Cl)cc2)CC1`, the z-score was -0.238.
The value for `CC(C)CC(=O)Nc1ccc2c(c1)oc1ccccc12` was -0.0658; that for `O=C(CN1CCN(Cc2ccccc2)CC1)Nc1ccc([N+](=O)[O-])cc1C(=O)Nc1ccccc1F` was -0.373; that for `COC(=O)C1(CCSC)NC(c2ccc(O)cc2)C2C(=O)N(c3ccc4c(c3)OCCO4)C(=O)C21` (centres undefined) was -0.167.
The compound `Cc1cccc(-c2c3c(=O)n(C)c(=O)n(C)c3c3nnc4ccccc4n23)c1` yielded a z-score of 0.784.
In turn, `CCOC(=O)N1CCN(C(=O)CSCc2ccc(Cl)cc2)CC1` returned a z-score of 0.0343.
As to `Cn1c(=O)n(C)c2cc([N+](=O)[O-])c(N3CCN(C(=O)c4ccccc4Cl)CC3)cc21`, the z-score is -0.0103.
With `COc1cc(C2NC(=O)NC(C)=C2C(=O)NCc2ccccc2)c(Cl)cc1O` (centres undefined), the z-score was found to be 0.0361.
`CC(CN1CCOCC1)OC(=O)c1cccc(Br)c1` (centres undefined) had a z-score of -1.01.
`C/C(=N/NC(=O)Cc1cccc2ccccc12)c1cccs1` came in with a z-score of -0.221.
The compound `Cc1nc2c(C)cccc2cc1C(=O)N/N=C/c1cccc([N+](=O)[O-])c1` displayed a z-score of -0.361.
The compound `CC1CCCN(CCSc2ccc(Cl)cc2)C1` (centres undefined) gave a z-score of -0.781.
Consider `O=C(NCCc1c[nH]c2ccccc12)c1cnc2sccn2c1=O`, for which the z-score turned out to be 0.161.
In turn, `N=c1oc2cc(O)ccc2cc1C(=O)Nc1nc2ccccc2s1` gave a z-score of 0.0207.
In turn, `N#CCCn1cnc2c(=S)nc[nH]c21` displayed a z-score of 0.0528.
For the compound `Cc1nn2c(-c3ccccc3)ccnc2c1-c1ccccc1`, the z-score was -0.391.
Turning to `Cc1ccnc(SCC(=O)N2CCN(c3ccccc3)CC2)n1`, the z-score was -0.0893.
In the case of `CC1CCCCN1C(=O)NC12CC3CC(CC(C3)C1)C2` (centres undefined), the z-score was -0.518.
Take `COCC(=O)Nc1nc(-c2ccc(C)cc2)c(C)s1`: the z-score came out at 0.166.
As for `CCCCCCCCNC(=O)CCNC(=O)c1ccc(C(C)(C)C)cc1`, the z-score was -0.0861.
Turning to `O=C(COC(=O)c1sc2ccccc2c1Cl)NC1CCCCC1`, the z-score is -0.479.
Turning to `COC(=O)C(C(=O)N1CCN(C)CC1)C1CCCCCC1` (centres undefined), the z-score was -0.0578.
In the case of `COc1cccc(C(=O)Nc2cc3c(cc2C(C)=O)OCCO3)c1`, the z-score was -0.187.
With `Cc1nc2ccccc2c(=O)n1NC(=O)Nc1ccccc1` the figure was -0.194; with `OC1CCCN(Cc2ccc3ccc4cccc5ccc2c3c45)C1` (centres undefined), 1.48; with `COc1ccc(CNC(=O)CCc2nc(-c3ccccc3F)no2)c(OC)c1`, -0.46.
`O=C(CN1CCOCC1)NC1C2CC3CC(C2)CC1C3` (centres undefined) yielded a z-score of 0.182.
`COc1cccc(C=Nc2cc(C)cc(C)c2)c1O` came in with a z-score of -0.66.
With `COc1cccc(-c2nnc(NC(=O)C3CCCCC3)o2)c1` the figure was -0.375.
Compound `O=C1c2ccccc2C(=O)N1OCc1cccc(Cl)c1` displayed a z-score of -0.573.
Regarding `O=c1[nH]c(CN(CCO)CCO)nc2c1C1(CCCCC1)Cc1ccccc1-2`, the z-score was -0.162.
In turn, `O=C(CN1CCC(O)(c2ccccc2F)CC1)NCCc1c[nH]c2ccccc12` showed a z-score of -0.657.
On to `Cc1ccc(C)c(C(=O)CC2(O)C(=O)Nc3ccccc32)c1` (centres undefined), for which the z-score came to 0.94.
`CCCNC(=O)Cn1cnc2sc(C(=O)N3CCN(c4ccc(F)cc4)CC3)c(C)c2c1=O` had a z-score of -0.159.
In turn, `O=C(CN1CCN(c2ccccn2)CC1)Nc1ccc2ccccc2c1` yielded a z-score of -0.148.
For the compound `Cc1nn(-c2cccc3cccnc23)c(=O)c2ccccc12`, the z-score was -0.222.
`CCN(CC)S(=O)(=O)c1ccc(Oc2ccccc2)cc1` displayed a z-score of -0.314.
In turn, `COc1ccc(C(=O)Nc2nc(-c3cccs3)cs2)cc1` showed a z-score of 0.215.
With `O=C(O)c1cccc(C(=O)O)n1` the figure was 0.451.
`CCc1ccc2c(c1)C(c1ccc([N+](=O)[O-])cc1)=NNC(c1ccc(F)cc1)=N2` registered a z-score of -0.112.
`CCCc1nc2ccccc2c(=O)n1-c1c(C)n(C)n(-c2ccccc2)c1=O` returned a z-score of 0.0215.
`CCOC(=O)c1ccc2c(c1)nc(SCC(=O)c1cc3ccccc3o1)n2CC` gave a z-score of 1.43.
The value for `COc1ccc(C(=O)NCS(=O)(=O)c2ccc(C)cc2)cc1` was -0.551.
With `O=C(Nc1nnc(C2CCCCC2)s1)c1cccs1`, the z-score is -0.112.
`COC(=O)COc1cccc2c(=O)n(CC(=O)N3CCCc4ccccc43)ccc12` gave a z-score of -0.0104.
Turning to `COc1ccc2c(c1)[n+](=O)c(C(C)=O)c(C)n2[O-]`, the z-score was -0.432.
The compound `Cc1ccc(Cn2c(C)nc3c(c2=O)c2nc4ccccc4nc2n3Cc2ccco2)cc1` had a z-score of -0.694.
The value for `Cn1c(C(=O)NC2CCCC2)cc2c(=O)n(C)c3ccccc3c21` was -0.47; that for `O=C(CN1CCN(CC(=O)Nc2ccc3c(c2)OCO3)CC1)Nc1ccc(F)cc1` was -0.509.
For `COC(=O)CCC(=O)NC(=S)Nc1c(C)cccc1C`, the z-score is -0.125.
With `CCCCC(=O)Nc1ccc2c3c(cccc13)C(=O)N2CC` the figure was -0.239; with `CC(C)c1ccc(S(=O)(=O)Nc2ccc(SC(F)F)cc2)cc1`, 0.236.
`CC(C)(C)C(=O)N1CCc2cc(-c3csc(N)n3)ccc21` returned a z-score of 0.0758.
Consider `CSc1nnc2c(n1)OC(C)N(C(=O)c1ccccc1)c1ccccc1-2` (centres undefined), for which the z-score was -0.907.
The value for `CCOC(=O)c1c(C)n(C)c2ccc(OCC(O)CN3CCCCCC3)cc12` (centres undefined) was 0.855; that for `COc1ccc(NC(=O)CSc2ncc(-c3ccc(F)cc3)n2Cc2ccco2)cc1` was -0.157; that for `COc1ccc(N2CCN(C(=O)C(OC(C)=O)c3ccccc3)CC2)cc1` (centres undefined) was -0.159.
Compound `C=CCCCCCCCCC(=O)Nc1c[nH]c(=O)[nH]c1=O` came in with a z-score of 0.477.
In turn, `CC(=O)c1ccc(-c2nc3c4ccccc4ccn3c2C(C)=O)o1` came in with a z-score of -0.508.
As to `CNC(=O)C1CC(=O)N(Cc2ccccc2)C(=Nc2ccc(OC)cc2)S1` (centres undefined), the z-score was -0.0283.
As for `Cc1cc(=O)n2[nH]cnc2n1`, the z-score was -0.209.
`C=CCN=C1CC(C)(C)CC(=O)/C1=C(\O)c1ccccc1` yielded a z-score of -0.221.
The compound `COc1ccc2c(c1)c(C(=O)CNc1nc(C)cs1)c(C)n2C` gave a z-score of -0.498.
The compound `O=C(Nc1ccc(OC(F)(F)C(F)F)c(NC(=O)c2ccc(F)cc2)c1)c1ccc(F)cc1` displayed a z-score of -0.0765.
On to `O=C(Nc1ccccc1Oc1ccccc1)c1ccc(Br)o1`, for which the z-score was -0.497.
With `COc1ccc(-c2cc(C(F)(F)F)nc(SCC(=O)Nc3cc(C)on3)n2)cc1OC` the figure was -0.812; with `CSc1nncc(/C(C)=N\Nc2cccc(C)c2)n1`, 0.113.
With `COc1ccc(/C=N/NC(=O)Cn2nnc3ccccc32)cc1OC`, the z-score was -0.749.
Take `Cc1cccc(C)c1NC(=O)COc1ccccc1C(=O)Nc1ccc(Br)cn1`: the z-score is -0.153.
Turning to `CN1CCN(c2ccc(NC(=O)c3ccccc3Br)cc2)CC1`, the z-score stood at 0.227.
On to `Cc1nc(CN2CCOCC2)cc(=O)[nH]1`, for which the z-score amounted to 0.197.
Take `CC(=O)Nc1cccc(NC(=O)C2CCCN2C(=O)Nc2cccc(F)c2)c1` (centres undefined): the z-score was -0.235.
`O=S(=O)(c1cnccc1N1CCN(/N=C/c2ccccc2)CC1)N1CCCCC1` yielded a z-score of -0.047.
The compound `COc1cccc(-n2cnc3scc(-c4cccs4)c3c2=O)c1` yielded a z-score of -2.15.
In turn, `C/C(=N\O)C(=O)NCCCn1ccnc1` displayed a z-score of -0.342.
The compound `CC(=C/c1ccccc1)/C=N/NC(=O)c1cc(C)oc1C` yielded a z-score of 0.673.
Compound `Cc1ccc(CN(c2ccc(C(=O)NCc3ccc4c(c3)OCO4)cc2)S(C)(=O)=O)cc1` showed a z-score of 0.187.
With `CCN(CC)c1ccc(/C=C2\CCC(/C=N/NC(=O)c3ccc(=O)n(C)c3)=C2N2CCOCC2)cc1` the figure was -0.478; with `COc1ccccc1C1CC(=O)NC(SCC(=O)Nc2ccccc2)=C1C#N` (centres undefined), 0.225.
As for `O=C(O)CCNc1ccc2c(c1)OCCO2`, the z-score is -0.158.
The value for `Nc1cc(Cl)ccc1Oc1ccccc1` was -0.392; that for `CCCNC(=O)Cn1c(=O)cnc2ccccc21` was 0.08.

The record behind these values is PubChem BioAssay AID488969 (Vanderbilt High Throughput Screening Facility, 2010).
